In the GPR68 mutational scans of Howard et al. (2025):

B1: GPR68, Q15743 (parent)
chain: MGNITADNSSMSCTIDHTIHQTLAPVVYVTVLVVGFPANCLSLYFGYLQIKARNELGVYLCNLTVADLFYICSLPFWLQYVLQHDNWSHGDLSCQVCGILLYENIYISVGFLCCISVDRYLAVAHPFRFHQFRTLKAAVGVSVVIWAKELLTSIYFLMHEEVIEDENQHRVCFEHYPIQAWQRAINYYRFLVGFLFPICLLLASYQGILRAVRRSHGTQKSRKDQIQRLVLSTVVIFLACFLPYHVLLLVRSVWEASCDFAKGVFNAYHFSLLLTSFNCVADPVLYCFVSETTHRDLARLRGACLAFLTCSRTGRAREAYPLGAPEASGKSGAQGEEPELLTKLHPAFQTPNSPGSGGFPTGRLA

Assays:
[1] = variants of: B1; assay: cAMP reporter score (Enrich2 score, wild type = 0); higher = more signal; HEK293T, FACS bins
[2] = variants of: B1; assay: surface expression score (Enrich2 score, wild type = 0); higher = more signal; HEK293T, FACS bins

With Q131_F132insGS the cAMP reporter score ([1]; pH 5.5) was -0.215, the cAMP reporter score ([1]; pH 6) was -0.511 and the cAMP reporter score ([1]; pH 6, modulator: ogerin) was -0.632. It also gave a cAMP reporter score ([1]; pH 6.5, modulator: ogerin) of -0.611 and a surface expression score [2] of -3.07.

In the case of T134_L135insG, the cAMP reporter score ([1]; pH 5.5) is reported as -1.09, the cAMP reporter score ([1]; pH 6) is reported as -0.522 and the cAMP reporter score ([1]; pH 6, modulator: ogerin) is reported as -0.565. The cAMP reporter score ([1]; pH 6.5, modulator: ogerin) was -0.674 and the surface expression score [2] was -3.17.

Variant F132_R133insG has a cAMP reporter score ([1]; pH 5.5) of -0.811, a cAMP reporter score ([1]; pH 6) of -1.27 and a cAMP reporter score ([1]; pH 6, modulator: ogerin) of -1.75. The cAMP reporter score ([1]; pH 6.5, modulator: ogerin) was -1.24 and the surface expression score [2] was -3.15.

With T134_L135del the cAMP reporter score ([1]; pH 5.5) was -0.282, the cAMP reporter score ([1]; pH 6) was 0.473 and the cAMP reporter score ([1]; pH 6, modulator: ogerin) was -0.385. The cAMP reporter score ([1]; pH 6.5, modulator: ogerin) was -0.463 and the surface expression score [2] was -2.08.

R133_L135del showed a cAMP reporter score ([1]; pH 5.5) of -1.38, a cAMP reporter score ([1]; pH 6) of -0.615 and a cAMP reporter score ([1]; pH 6, modulator: ogerin) of -1.22. It also gave a cAMP reporter score ([1]; pH 6.5, modulator: ogerin) of -1.31 and a surface expression score [2] of -2.53.

Variant R133del has a cAMP reporter score ([1]; pH 5.5) of -1.45, a cAMP reporter score ([1]; pH 6) of -1.32 and a cAMP reporter score ([1]; pH 6, modulator: ogerin) of -2.3. It also gave a cAMP reporter score ([1]; pH 6.5, modulator: ogerin) of -0.865 and a surface expression score [2] of -2.49.

Variant MGNITADNSSMSCTIDHTIHQTLAPVVYVTVLVVGFPANCLSLYFGYLQIKARNELGVYLCNLTVADLFYICSLPFWLQYVLQHDNWSHGDLSCQVCGILLYENIYISVGFLCCISVDRYLAVAHPFRFHQFRTLAAAVGVSVVIWAKELLTSIYFLMHEEVIEDENQHRVCFEHYPIQAWQRAINYYRFLVGFLFPICLLLASYQGILRAVRRSHGTQKSRKDQIQRLVLSTVVIFLACFLPYHVLLLVRSVWEASCDFAKGVFNAYHFSLLLTSFNCVADPVLYCFVSETTHRDLARLRGACLAFLTCSRTGRAREAYPLGAPEASGKSGAQGEEPELLTKLHPAFQTPNSPGSGGFPTGRLA [K136A] has a cAMP reporter score ([1]; pH 5.5) of -0.099, a cAMP reporter score ([1]; pH 6) of -2.03 and a cAMP reporter score ([1]; pH 6, modulator: ogerin) of -1.03. It also gave a cAMP reporter score ([1]; pH 6.5, modulator: ogerin) of -1.72 and a surface expression score [2] of -1.63.

Variant T134_L135insGSG has a cAMP reporter score ([1]; pH 5.5) of -0.93, a cAMP reporter score ([1]; pH 6) of -1.47 and a cAMP reporter score ([1]; pH 6, modulator: ogerin) of -1.72. For the same variant, the cAMP reporter score ([1]; pH 6.5, modulator: ogerin) was -0.75 and the surface expression score [2] was -2.75.

F132del gave a cAMP reporter score ([1]; pH 5.5) of -1.86, a cAMP reporter score ([1]; pH 6) of -1.68 and a cAMP reporter score ([1]; pH 6, modulator: ogerin) of -2.09. It also gave a cAMP reporter score ([1]; pH 6.5, modulator: ogerin) of -1.76 and a surface expression score [2] of -2.31.

Work on T134_L135insGS yielded a cAMP reporter score ([1]; pH 5.5) of -0.774, a cAMP reporter score ([1]; pH 6) of 0.361 and a cAMP reporter score ([1]; pH 6, modulator: ogerin) of -0.545. The cAMP reporter score ([1]; pH 6.5, modulator: ogerin) was -0.415 and the surface expression score [2] was -2.99.

For F132_R133insGSG, the cAMP reporter score ([1]; pH 5.5) was -1.34, the cAMP reporter score ([1]; pH 6, modulator: ogerin) was -2.95 and the cAMP reporter score ([1]; pH 6.5, modulator: ogerin) was -0.639. The surface expression score [2] was -2.09.

Variant R133_T134insGS has a cAMP reporter score ([1]; pH 5.5) of -1.72, a cAMP reporter score ([1]; pH 6) of -1.15 and a cAMP reporter score ([1]; pH 6, modulator: ogerin) of -1.83. The cAMP reporter score ([1]; pH 6.5, modulator: ogerin) was -0.331 and the surface expression score [2] was -2.45.

For F132_R133insGS, the cAMP reporter score ([1]; pH 5.5) was -0.801, the cAMP reporter score ([1]; pH 6) was -0.234 and the cAMP reporter score ([1]; pH 6, modulator: ogerin) was -0.058. The cAMP reporter score ([1]; pH 6.5, modulator: ogerin) was -1.03 and the surface expression score [2] was -2.88.

In the case of R133_T134insGSG, the cAMP reporter score ([1]; pH 5.5) is reported as -0.67, the cAMP reporter score ([1]; pH 6) is reported as -1.19 and the cAMP reporter score ([1]; pH 6, modulator: ogerin) is reported as -0.991. It also gave a cAMP reporter score ([1]; pH 6.5, modulator: ogerin) of -0.908 and a surface expression score [2] of -2.85.

For MGNITADNSSMSCTIDHTIHQTLAPVVYVTVLVVGFPANCLSLYFGYLQIKARNELGVYLCNLTVADLFYICSLPFWLQYVLQHDNWSHGDLSCQVCGILLYENIYISVGFLCCISVDRYLAVAHPFRFHYFRTLKAAVGVSVVIWAKELLTSIYFLMHEEVIEDENQHRVCFEHYPIQAWQRAINYYRFLVGFLFPICLLLASYQGILRAVRRSHGTQKSRKDQIQRLVLSTVVIFLACFLPYHVLLLVRSVWEASCDFAKGVFNAYHFSLLLTSFNCVADPVLYCFVSETTHRDLARLRGACLAFLTCSRTGRAREAYPLGAPEASGKSGAQGEEPELLTKLHPAFQTPNSPGSGGFPTGRLA [Q131Y], the cAMP reporter score ([1]; pH 5.5) was 0.338, the cAMP reporter score ([1]; pH 6) was 0.11 and the cAMP reporter score ([1]; pH 6, modulator: ogerin) was -0.794. It also gave a cAMP reporter score ([1]; pH 6.5, modulator: ogerin) of -0.685 and a surface expression score [2] of -0.474.

MGNITADNSSMSCTIDHTIHQTLAPVVYVTVLVVGFPANCLSLYFGYLQIKARNELGVYLCNLTVADLFYICSLPFWLQYVLQHDNWSHGDLSCQVCGILLYENIYISVGFLCCISVDRYLAVAHPFRFHVFRTLKAAVGVSVVIWAKELLTSIYFLMHEEVIEDENQHRVCFEHYPIQAWQRAINYYRFLVGFLFPICLLLASYQGILRAVRRSHGTQKSRKDQIQRLVLSTVVIFLACFLPYHVLLLVRSVWEASCDFAKGVFNAYHFSLLLTSFNCVADPVLYCFVSETTHRDLARLRGACLAFLTCSRTGRAREAYPLGAPEASGKSGAQGEEPELLTKLHPAFQTPNSPGSGGFPTGRLA [Q131V] gave a cAMP reporter score ([1]; pH 5.5) of 0.798, a cAMP reporter score ([1]; pH 6) of 3.01 and a cAMP reporter score ([1]; pH 6, modulator: ogerin) of 0.352. The cAMP reporter score ([1]; pH 6.5, modulator: ogerin) was 1.51.

Work on MGNITADNSSMSCTIDHTIHQTLAPVVYVTVLVVGFPANCLSLYFGYLQIKARNELGVYLCNLTVADLFYICSLPFWLQYVLQHDNWSHGDLSCQVCGILLYENIYISVGFLCCISVDRYLAVAHPFRFHTFRTLKAAVGVSVVIWAKELLTSIYFLMHEEVIEDENQHRVCFEHYPIQAWQRAINYYRFLVGFLFPICLLLASYQGILRAVRRSHGTQKSRKDQIQRLVLSTVVIFLACFLPYHVLLLVRSVWEASCDFAKGVFNAYHFSLLLTSFNCVADPVLYCFVSETTHRDLARLRGACLAFLTCSRTGRAREAYPLGAPEASGKSGAQGEEPELLTKLHPAFQTPNSPGSGGFPTGRLA [Q131T] yielded a cAMP reporter score ([1]; pH 5.5) of -0.163, a cAMP reporter score ([1]; pH 6) of -0.701 and a cAMP reporter score ([1]; pH 6.5, modulator: ogerin) of -1.57. For the same variant, the surface expression score [2] was 0.305.

Scores with a large standard error are left out. The source holds two more conditions with little spread; they are left out. Read del as a deletion of the residues named and ins as an insertion between two positions. For some of these results: How much ogerin was present is not stated here.
